In the supplement of paper PMC4604168 (melanoma cell lines):
Some of the results follow. Single values are uncertain, as repeats are few or missing.

Key:
Assay in all cases: cell count relative to DMSO control; melanoma cells; higher = more viable cells
Conditions in all cases: library dose: low library concentration; 72 h
MZ2-MEL = test system: MZ2-MEL
MeWo = test system: MeWo
RPMI7951 = test system: RPMI7951
RVH-421 = test system: RVH-421
SkMel28 = test system: SkMel28
SkMel2 = test system: SkMel2
SkMel30 = test system: SkMel30
SkMel5 = test system: SkMel5
UACC257 = test system: UACC257
UACC62 = test system: UACC62
WM115 = test system: WM115
WM1716 = test system: WM1716
WM1745 = test system: WM1745
WM3526 = test system: WM3526
WM3619 = test system: WM3619
WM451Lu = test system: WM451Lu
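Note: cell number obtained by counting DAPI-stained nuclei in high-throughput microscope images with image analysis software, screen run in 1,536-well plates.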

| Compound | cell count (MZ2-MEL) | cell count (MeWo) | cell count (RPMI7951) | cell count (RVH-421) | cell count (SkMel28) | cell count (SkMel2) | cell count (SkMel30) | cell count (SkMel5) | cell count (UACC257) | cell count (UACC62) | cell count (WM115) | cell count (WM1716) | cell count (WM1745) | cell count (WM3526) | cell count (WM3619) | cell count (WM451Lu) |
| --- | --- | --- | --- | --- | --- | --- | --- | --- | --- | --- | --- | --- | --- | --- | --- | --- |
| CS(=O)(=O)CCNCc1ccc(-c2ccc3ncnc(Nc4ccc(OCc5cccc(F)c5)c(Cl)c4)c3c2)o1 [lapatinib] + CCN(CC)CCCCNc1ncc2cc(-c3cc(OC)cc(OC)c3)c(NC(=O)NC(C)(C)C)nc2n1 [PD173074] (first compound 0.8 µM, partner dose 0.1 µM) | 96.2% | 83.9% | 92.2% | 111% | 94.1% | 98.1% | 94.7% | 105% | 91.9% | 91.7% | 111% | 98.5% | 91% | 90.1% | 91.8% | 94.1% |
| C=CCNC1=C2C[C@@H](C)C[C@H](OC)[C@H](O)[C@@H](C)/C=C(\C)[C@H](OC(N)=O)[C@@H](OC)/C=C\C=C(/C)C(=O)NC(=CC1=O)C2=O [Tanespimycin] + OCCn1cc(-c2cnc3nnn(Cc4ccc5ncccc5c4)c3n2)cn1 [PF04217903] (first compound 0.002 µM, partner dose 1 µM) | 109% | 93% | 85.2% | 105% | 96.5% | 102% | 117% | 95% | 109% | 100% | 93.9% | 82.9% | 87.9% | 88% | 87.5% | 90.7% |
| CNC(=O)c1cc(Oc2ccc(NC(=O)Nc3ccc(Cl)c(C(F)(F)F)c3)cc2)ccn1 [sorafenib] + C[C@@H]1CCN(C(=O)CC#N)C[C@@H]1N(C)c1ncnc2[nH]ccc12 [CP690550] (first compound 0.4 µM, partner dose 1 µM) | 106% | 88.9% | 94.7% | 107% | 90.8% | 98% | 111% | 90.1% | 101% | 94.8% | 116% | 91% | 93.8% | 123% | 101% | 86.3% |
| C[C@@H](Oc1cc(-c2cnn(C3CCNCC3)c2)cnc1N)c1c(Cl)ccc(F)c1Cl [Crizotinib] + c1cc(-c2cnn3cc(-c4ccc(OCCN5CCCCC5)cc4)cnc23)ccn1 [Dorsomorphin] (first compound 0.2 µM, partner dose 0.4 µM) | 99.1% | 92.7% | 102% | 106% | 88.1% | 109% | 83.9% | 74.9% | 73.3% | 77.2% | 90.2% | 108% | 70.5% | 84.7% | 109% | 93.9% |
| CN1CCN(c2ccc3nc(-c4c(N)c5c(F)cccc5[nH]c4=O)[nH]c3c2)CC1 [Dovitinib] + COC(=O)c1sccc1S(=O)(=O)Nc1ccc(Nc2ccccc2)cc1OC [GSK0660] (first compound 0.1 µM, partner dose 1 µM) | 97.6% | 103% | 96% | 98.3% | 89% | 97.9% | 80.4% | 95.4% | 89.2% | 89.1% | 79.5% | 139% | 102% | 91.3% | 122% | 94.4% |
| CNC(=O)c1cc(Oc2ccc(NC(=O)Nc3ccc(Cl)c(C(F)(F)F)c3)cc2)ccn1 [sorafenib] + Cn1cncc1[C@@](N)(c1ccc(Cl)cc1)c1ccc2c(c1)c(-c1cccc(Cl)c1)cc(=O)n2C [tipifarnib] (first compound 0.4 µM, partner dose 0.01 µM) | 102% | 91.4% | 100% | 88.8% | 89.5% | 80.7% | 99.6% | 100% | 87.1% | 81.2% | 92.7% | 88.5% | 90% | 86.7% | 113% | 84.9% |
| CNC(=O)c1cc(Oc2ccc(NC(=O)Nc3ccc(Cl)c(C(F)(F)F)c3)cc2)ccn1 [sorafenib] + NC(=O)Nc1cc(-c2cccc(F)c2)sc1C(=O)N[C@H]1CCCNC1 [AZD7762] (first compound 0.4 µM, partner dose 0.02 µM) | 105% | 98.4% | 83.4% | 106% | 97.9% | 93.1% | 94% | 107% | 108% | 84.1% | 97.2% | 86.6% | 89.8% | 91.4% | 86.6% | 106% |
| CN1CCN(c2ccc3nc(-c4c(N)c5c(F)cccc5[nH]c4=O)[nH]c3c2)CC1 [Dovitinib] + Cc1cc([N+](=O)[O-])ccc1NS(=O)(=O)c1cc(Cl)ccc1Cl [FH535] (first compound 0.1 µM, partner dose 1 µM) | 83.6% | 91.3% | 120% | 95.4% | 85.6% | 90.2% | 67.3% | 87.6% | 80.8% | 79.5% | 79.4% | 115% | 86% | 83.1% | 126% | 99.2% |
| C[C@@H](Oc1cc(-c2cnn(C3CCNCC3)c2)cnc1N)c1c(Cl)ccc(F)c1Cl [Crizotinib] + O=C(O)c1ccc(-c2c[nH]c3ncc(-c4ccccc4)cc23)cc1C1CCCC1 [GSK650394] (first compound 0.2 µM, partner dose 0.16 µM) | 95% | 86% | 111% | 107% | 89.2% | 87.5% | 99% | 90.9% | 88.1% | 98.4% | 103% | 110% | 94.7% | 91.4% | 109% | 105% |
| CNC(=O)c1cc(Oc2ccc(NC(=O)Nc3ccc(Cl)c(C(F)(F)F)c3)cc2)ccn1 [sorafenib] + COc1ccc(-c2ccc3c(N4CCOCC4)nc(N4C[C@@H](C)O[C@@H](C)C4)nc3n2)cc1CO [KU0063794] (first compound 0.4 µM, partner dose 0.02 µM) | 92.5% | 113% | 96.8% | 99.3% | 88.5% | 98.3% | 81.8% | 88.2% | 91% | 95.1% | 92.7% | 95.5% | 90.2% | 92% | 96.9% | 89.7% |
| CN1CCN(c2ccc3nc(-c4c(N)c5c(F)cccc5[nH]c4=O)[nH]c3c2)CC1 [Dovitinib] + Cc1ccc(NC(=O)c2cccc(N(C)C)c2)cc1NC(=O)c1ccc(O)cc1 [ZM336372] (first compound 0.1 µM, partner dose 2 µM) | 62.5% | 92.8% | 93.9% | 117% | 94% | 107% | 54.3% | 85.8% | 92.7% | 88.4% | 79% | 110% | 83.8% | 79.4% | 111% | 79.8% |
| CNC(=O)c1cc(Oc2ccc(NC(=O)Nc3ccc(Cl)c(C(F)(F)F)c3)cc2)ccn1 [sorafenib] + Cc1cc([N+](=O)[O-])ccc1NS(=O)(=O)c1cc(Cl)ccc1Cl [FH535] (first compound 0.4 µM, partner dose 1 µM) | 88.4% | 99.3% | 103% | 93% | 90.1% | 93.9% | 81.9% | 95% | 106% | 82.1% | 85.2% | 69.5% | 86.3% | 93.5% | 89.9% | 102% |
| CN1CCN(c2ccc3nc(-c4c(N)c5c(F)cccc5[nH]c4=O)[nH]c3c2)CC1 [Dovitinib] + CC(C)CCN1c2nc(Nc3cc(F)c(O)c(F)c3)ncc2N(C)C(=O)C1C [BID1870] (first compound 0.1 µM, partner dose 0.2 µM) | 103% | 79.1% | 103% | 167% | 77.7% | 95.8% | 106% | 106% | 117% | 95.5% | 82.7% | 100% | 81.4% | 95.1% | 102% | 67% |
| CN1CCN(c2ccc3nc(-c4c(N)c5c(F)cccc5[nH]c4=O)[nH]c3c2)CC1 [Dovitinib] + N#Cc1c(O)c2c(-c3ccc(-c4ccccc4O)cc3)csc2[nH]c1=O [A769662] (first compound 0.1 µM, partner dose 2 µM) | 101% | 91.2% | 89.2% | 87% | 85.5% | 98.2% | 100% | 84.6% | 78.6% | 96.4% | 86.8% | 97.9% | 90.4% | 83.1% | 83% | 94.3% |
| CN1CCN(c2ccc3nc(-c4c(N)c5c(F)cccc5[nH]c4=O)[nH]c3c2)CC1 [Dovitinib] + O=C(O)c1ccc(-c2c[nH]c3ncc(-c4ccccc4)cc23)cc1C1CCCC1 [GSK650394] (first compound 0.1 µM, partner dose 0.16 µM) | 82% | 73.9% | 104% | 113% | 94.8% | 99.3% | 67.3% | 85.4% | 94.9% | 82.4% | 102% | 91.3% | 70.8% | 77.9% | 98.7% | 113% |
| C[C@@H](Oc1cc(-c2cnn(C3CCNCC3)c2)cnc1N)c1c(Cl)ccc(F)c1Cl [Crizotinib] + NC(=O)Nc1cc(-c2cccc(F)c2)sc1C(=O)N[C@H]1CCCNC1 [AZD7762] (first compound 0.2 µM, partner dose 0.02 µM) | 113% | 98.4% | 96.9% | 140% | 90.1% | 95.6% | 123% | 99.2% | 104% | 99% | 74.7% | 112% | 108% | 88.9% | 55.9% | 92.9% |
| C[C@@H](Oc1cc(-c2cnn(C3CCNCC3)c2)cnc1N)c1c(Cl)ccc(F)c1Cl [Crizotinib] + Cc1ccc(NC(=O)c2cccc(N(C)C)c2)cc1NC(=O)c1ccc(O)cc1 [ZM336372] (first compound 0.2 µM, partner dose 2 µM) | 77.4% | 97% | 101% | 87.7% | 95.2% | 104% | 85.6% | 81.1% | 101% | 82.9% | 81% | 91.1% | 82.7% | 101% | 104% | 96.6% |
| CN1CCN(c2ccc3nc(-c4c(N)c5c(F)cccc5[nH]c4=O)[nH]c3c2)CC1 [Dovitinib] + NC(=O)Nc1cc(-c2cccc(F)c2)sc1C(=O)N[C@H]1CCCNC1 [AZD7762] (first compound 0.1 µM, partner dose 0.02 µM) | 114% | 98.8% | 108% | 102% | 90% | 106% | 101% | 109% | 87% | 76.2% | 94.4% | 106% | 91% | 100% | 76.6% | 83% |
